Data published in PubChem BioAssay AID1508642 (National Center for Advancing Translational Sciences (NCATS), 2021).
About 200 (0.47%) of roughly 43,000 compounds were called active. Not shown: some 12% with an inconclusive outcome. The call rests on the fitted dose curve; in most records, active means well fitted cell-killing curve with a large enough effect; inconclusive means small, poorly fitted or top-dose-only effect, or effect the other way; inactive means flat fitted curve, though single readings scatter. The list shows a part of the results.

Experiment: Cell viability qHTS assay in S16 Pmp22-F2sN cells; further: nearly all actives have a fitted effect of over 65% in size
Details: S16 Pmp22-F2sN Schwann cells (luciferase reporters placed in the Pmp22 gene) viability, CellTiter-Glo, 24 h; series mostly up to 57.5 µM; activity change, negative = cytotoxicity: at the top concentration
In short: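 Luminescence from CellTiter-Glo, read by CCD camera after a 15 min room-temperature incubation, served as the viability signal. Reporter Schwann cells (S16 Pmp22-F2sN) had been treated with pin-transferred compounds for 24 h at 37C.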
On the % scale 0 is the no-effect control and ±100 the full control effect; potency means the concentration at half of the fitted maximal effect.

SMILES | activity change, negative = cytotoxicity | Potency
CCOc1ccc(N(CC)S(=O)(=O)N2CCCC(C(=O)Nc3ccc(OC)c(OC)c3)C2)cc1 (stereo unspecified) | inactive: 1.34% | 
CCCCN(Cc1ccccc1)S(=O)(=O)c1cc(Br)cc2c1N(C(=O)C1CC1)CC2 | inactive: 0.34% | 
CCOc1ccc(-n2ccn3c(CC(C)CC(=O)O)nnc3c2=O)cc1 (stereo unspecified) | inactive: 4.02% | 
COc1ccc2c(c1)c1c(c(=O)n(-c3ccc(C)cc3)c(=O)n1CC(=O)N1CCCC1)n2C | inactive: 0.0153% | 
CCC12CN3CC(C)(CN(C1)C3c1ccccc1C)C2=O (stereo unspecified) | inactive: 8.52% | 
Cc1ccccc1-c1nc2cc(NC(=O)c3cccc(OCCC(C)C)c3)ccc2o1 | inactive: 2% | 
Cc1ccc(S(=O)(=O)c2cnc(SC(C)C(=O)Nc3ccccc3)[nH]c2=O)cc1 (stereo unspecified) | inactive: -0.0019% | 
CCC(Cn1nnc2ccccc2c1=O)NC(=O)Nc1ccc(C)cc1 (stereo unspecified) | inactive: -0.0933% | 
CCOc1ccc(OCC)c(NC(=O)c2cc(CN3CCOCC3)on2)c1 | inactive: 7.94% | 
O=C(CSc1nnc(CNC(=O)c2ccccc2F)n1-c1ccccc1)Nc1ccccc1F | inactive: -4.21% | 
CCCNC(=O)CCn1nc(-c2ccccc2)c2ccccc2c1=O | inactive: -7.38% | 
O=C(CCc1nnc2n(Cc3ccccc3Cl)c(=O)c3ccccc3n12)Nc1ccc(F)cc1 | inactive: 9.07% | 
CC(=O)C1=C(c2ccc(Cl)c(Cl)c2)N(C(C)=O)n2c(nnc2C2CCCCC2)S1 | inactive: 10.4% | 
CCCc1ccc(OC(C)C(=O)Nc2sc3c(c2C(=O)OC)CCCCC3)cc1 (stereo unspecified) | inactive: 6.91% | 
CCN1CCN(c2csc3ccc(C)cc3c2=O)CC1 | inactive: 13.9% | 
Cc1ccc(-n2ncc(C(=O)Nc3ccc4c(c3)OCCO4)c2C2CCN(C(=O)OC(C)(C)C)CC2)cc1 | inactive: -20.4% | 
COc1ccc(Br)cc1CNC(=O)CSc1cc(=O)n(C)c2ccccc12 | inactive: 3.19% | 
Cc1ccccc1-c1noc(-c2cc3ccccc3oc2=O)n1 | inactive: 9.91% | 
CCCCNC(=O)c1nn(-c2ccc(C)cc2)c(=O)c2c1c1ccccc1n2C |  | active: 15.8 µM
Cc1cccc(CNC(=O)c2cccc(NC(=O)N3CCSc4ncccc43)c2)c1 | inactive: -0.829% | 
CSc1nc(Nc2cccc(C)c2)c(C#N)c(-c2ccccc2)n1 | inactive: -4.51% | 
CNc1c(NC(=O)c2cc(OC)cc(OC)c2)c(=O)oc2ccccc12 | inactive: 9.6% | 
Cn1c(SCC(=O)N2CCCc3ccccc32)ncc(C(=O)Nc2ccc(F)cc2)c1=O | inactive: -3.3% | 
CC(=O)Nc1c(C)nn(-c2ccccc2)c1N1CCC(C(=O)Nc2ccc(F)cc2Cl)CC1 | inactive: -1.41% | 

SMILES | activity change, negative = cytotoxicity | Potency
Cc1cccc(NC(=O)N2CCC(CN3CCC(C)CC3)CC2)c1C | inactive: 12.3% | 
COc1ccc2c(c1)c(=O)c(S(=O)(=O)c1ccc(Cl)cc1)cn2C | inactive: -10.1% | 
Cc1ccccc1CNC(=O)C1CCN(c2nnc(-n3c(C)ccc3C)s2)CC1 | inactive: -3.97% | 
CCOC(=O)c1cccc(NC(=O)c2cc3cc4ccc(C)cc4nc3o2)c1 | inactive: 9.94% | 
CCCn1c(SCc2nc(-c3cc(OC)ccc3OC)no2)nnc1-c1ccc(Cl)cc1 | inactive: -9.17% | 
CCc1cccc(CC)c1NC(=O)C(CC)n1nc(C)n2c(cc3cc(C)ccc32)c1=O (stereo unspecified) | inactive: -0.449% | 
Cc1ccc2c(c1)C(c1ccccc1)N(C(=O)c1ccccc1F)CC(=O)N2 (stereo unspecified) | inactive: -10.5% | 
Cc1ccccc1NC(=O)CSc1nnc(C)c(=O)[nH]1 | inactive: -0.167% | 
O=C(NCc1ccco1)C1CCN(C(=O)N2CCOc3ccccc32)CC1 | inactive: 12% | 
Nc1c(-c2nc(-c3cccs3)no2)nnn1-c1ccccc1Cl | inactive: 4.47% | 
Cc1ccc(Cl)cc1N(C)C(=O)Cn1nc(Cc2cccnc2)c2ccccc2c1=O | inactive: 25.2% | 
CCOc1cccc(CNC(=O)c2ccc(N3CCCC3)c(NC(=O)NCc3ccc(F)cc3)c2)c1 | inactive: 8.85% | 
O=C(Nc1cccc(C(=O)OCc2cc(=O)n3nc(C4CC4)sc3n2)c1)c1ccccc1 | inactive: 0.665% | 
Cc1cc(C)cc(OC(C)C(=O)Nc2nonc2-c2ccc(Br)cc2)c1 (stereo unspecified) | inactive: -3.65% | 
CCOc1ccc(-c2nonc2NC(=O)c2oc3c(C)c(C)ccc3c2C)cc1OCC | inactive: -1.6% | 
Cc1ccc(C)c(Cn2c3ccccc3c3cnn(CC(=O)NCCCc4ccccc4)c(=O)c32)c1 | inactive: 4.48% | 
COc1ccccc1-c1nc2c3c(-c4ccccc4)c(-c4ccccc4)oc3ncn2n1 | inactive: 2.05% | 
COCCn1c(CNC(=O)c2ccc(C)cc2)nc2cccnc21 | inactive: 11.2% | 
Cc1ccc(-n2nc(C)c(C(=O)NCCCN3CCN(c4ccc(F)cc4)CC3)c2-n2cccc2)cc1 | inactive: -29.5% | 
Cc1ccccc1CS(=O)(=O)CC1Nc2ccc(C(=O)NCc3ccc(Cl)cc3)cc2NC1=O (stereo unspecified) | inactive: -0.997% | 
COc1ccc(N2CCN(c3oc(/C=C/c4ccc(F)cc4)nc3C#N)CC2)cc1 | inactive: 10.9% | 
CCc1ccc(CN(Cc2ccco2)C(=O)c2ccc(OC)cc2)cc1 | inactive: 4.94% | 
Cc1nnc(SCc2ccccc2)c2cc3sccc3n12 | inactive: -19.4% | 
CCOc1cc(C(=O)N2CC(=O)Nc3ccc(C)cc3C2c2ccccc2)cc(OCC)c1OCC (stereo unspecified) | inactive: -11.5% | 

SMILES | activity change, negative = cytotoxicity | Potency
CCc1ccc(CNC(=O)CCC(=O)N2Cc3cccc(OC)c3Oc3ncccc32)cc1 | inactive: 7.71% | 
Cc1ccc(C(=O)NCCc2ccc(Cl)cc2)cc1-n1c(C)nc2cccnc21 | inactive: 2.77% | 
COc1cc(-c2noc(-c3ccc(NCc4ccccc4)c([N+](=O)[O-])c3)n2)cc(OC)c1OC | inactive: 13.3% | 
CCOc1ccc(NC(=O)CCNS(=O)(=O)c2ccc3c(c2)oc(=O)n3C)cc1 | inactive: 3.53% | 
CCOc1ccc(-c2nn(CC(=O)NC3CCCCC3)c3c2cnc2ccc(C)cc23)cc1 | inactive: 1.1% | 
CCCn1c2ccccc2c2cnn(CC(=O)NCCc3ccc(OCC)cc3)c(=O)c21 | inactive: 9.85% | 
COc1ccc(NC(=O)Cn2nnc3sc4c(c3c2=O)CCC(C)C4)c(OC)c1 (stereo unspecified) | inactive: 12.5% | 
COc1ccccc1CNC(=O)c1ccc2c(c1)N(Cc1cccc(C)c1)C(=O)c1ccccc1S2(=O)=O | inactive: 13.2% | 
COc1ccc(Cl)cc1NC(=O)c1sc(-n2nc(C)c(Cc3ccccc3)c2C)nc1C | inactive: 13.8% | 
Cc1ccc(C)c(Cn2c3ccccc3c3cnn(CC(=O)NCCC4=CCCCC4)c(=O)c32)c1 | inactive: -2.62% | 
COc1ccc(OC)c(CCNC(=O)c2ccc3c(c2)N(Cc2ccc(C)cc2)CCS3)c1 | inactive: -3.76% | 
COc1ccc(F)cc1S(=O)(=O)NCCc1c(C)[nH]c2c(Cl)cccc12 | inactive: -1.29% | 
Cc1cc(C)cc(NC(=O)CSc2nc3c(oc4ccccc43)c(=O)n2-c2ccccc2F)c1 | inactive: 0.0406% | 
COc1ccc2cc3cc(C(=O)NCc4ccc(C)cc4)oc3nc2c1 | inactive: 0.94% | 
CCOC(=O)N1CCC(NC(=O)c2c(C)nn(-c3ccc(C)cc3)c2-n2cccc2)CC1 | inactive: -11.3% | 
CCOCCCNC(=O)C1CCN(c2nn3cc(-c4ccc(F)cc4)nc3s2)CC1 | inactive: -3.28% | 
COc1ccc(Nc2cc(C(=O)NCCc3ccc(C)cc3)c3ccccc3n2)c(OC)c1 | inactive: -0.339% | 
CCc1ccc(S(=O)(=O)c2cn(CC(=O)Nc3ccc(C)cc3)c3ccccc3c2=O)cc1 | inactive: 19.4% | 
COC(=O)c1scc(-c2ccc(C)cc2)c1S(=O)(=O)Nc1cc(Cl)ccc1C | inactive: 14.1% | 
Cn1c(=O)c(=O)n(C)c2cc(N3CCOCC3)c(NS(=O)(=O)c3ccc(Cl)cc3)cc21 | inactive: 4.36% | 
Cc1ccc(CNC(=O)c2ccc3nc(N4CCCCC4)sc3c2)cc1 | inactive: -18.5% | 
COc1cccc(C(c2sc3nc(-c4ccco4)nn3c2O)N2CCC(O)CC2)c1 (stereo unspecified) | inactive: -0.827% | 
CCOc1ccc(CCNC(=O)c2ccc3c(Cl)c4c(nc3c2)CCCC4)cc1 | inactive: 12.5% | 
CCOC(=O)c1ccc(NC(=O)c2c(NC(C)=O)sc3c2CCC(C)C3)cc1 (stereo unspecified) | inactive: 6.87% | 

SMILES | activity change, negative = cytotoxicity | Potency
O=S(=O)(NCCc1nnc2ccc(SCc3ccc(Cl)cc3Cl)nn12)c1ccccc1 | inactive: -16.8% | 
CCOc1ccccc1NC(=O)c1sc2nc3n(c(=O)c2c1C)CCCCC3 | inactive: 17.2% | 
COc1ccc(CCNS(=O)(=O)c2ccc3c(c2)CC(C)N3C(=O)C2CCC2)cc1OC (stereo unspecified) | inactive: -19% | 
CCOc1ccc(CC(=O)NCCc2csc(-c3ccc(C)cc3)n2)cc1 | inactive: -14.3% | 
COc1ccc(S(=O)(=O)n2nc(C)c(S(=O)(=O)N3CCC(C)CC3)c2C)cc1C | inactive: 1.54% | 
CCC(=O)Nc1c(C(=O)N2CCN(c3ccc(F)cc3)CC2)oc2ccccc12 | inactive: -5.22% | 
CCOc1ccc(N(C(=O)CC(C)C)S(=O)(=O)c2ccc3c(c2)oc(=O)n3C)cc1 | inactive: 4.55% | 
COc1ccc(CCNC(=O)CCCn2c(=O)c3ccccc3n(Cc3cccc(Cl)c3)c2=O)cc1OC | inactive: 6.84% | 
COc1ccc(NC(=O)Cn2nnc(C(=O)Nc3ccc(F)c(Cl)c3)c2N)cc1OC | inactive: 7.58% | 
Cc1ccc(NC(=O)Cn2cc(C(=O)C3CC3)c3ccccc32)cc1 | inactive: 8.36% | 
Cn1c(SCc2ccc(F)cc2)nc2ccc(C(=O)NCc3ccc(Cl)cc3)cc21 | inactive: -25% | 
COc1ccc(-c2noc(CN(C(=O)COc3cc(C)c(Br)c(C)c3)C(C)C)n2)cc1 | inactive: -20% | 
CCCn1c(SCc2nc(-c3ccc(OC)cc3OC)no2)nnc1-c1ccc(Cl)cc1 | inactive: -17.4% | 
Cc1cccc(C)c1NC(=O)CSc1nc(-c2ccccc2)nc2c1Cc1c(CO)cnc(C)c1O2 | inactive: 4.65% | 
O=C1NCCN(Cc2ccc(F)cc2)C1=O | inactive: 2.49% | 
Cc1ccc2[nH]c(CSc3nnc(NC(=O)COc4ccccc4)s3)cc(=O)c2c1 | inactive: -13.2% | 
COc1ccc(-n2c(SCC(=O)Nc3ccc(Cl)c(C)c3)nc3n[nH]c(C)c3c2=N)cc1 | inactive: -11% | 
NC(=O)c1c(NC(=O)c2nc(SCc3ccccc3F)ncc2Cl)sc2c1CCCC2 | inactive: 12.5% | 
COc1cc(C(=O)NCCCc2nc3ccccc3n2CC(C)C)cc(OC)c1OC | inactive: 2.85% | 
O=C(C1CCN(S(=O)(=O)c2ccc(Br)s2)CC1)N1CCN(c2cccc(Cl)c2)CC1 | inactive: -24% | 
Cc1ccc(Sc2c(C)nn(C(=O)COc3ccccc3Br)c2C)cc1 | inactive: -0.468% | 
CCOc1ccc(CCNC(=O)c2sc3nc4n(c(=O)c3c2C)CCCC4)cc1OCC | inactive: 2.12% | 
CCOC(=O)c1ccc(NC(=O)CCn2c(=O)c3cccn3c3ccccc32)cc1 | inactive: -2.94% | 
COc1ccc(OC)c(CNC(=O)c2nn(-c3ccc(OC)c(Cl)c3)c(=O)c3c2c2ccccc2n3C)c1 | inactive: 14% | 
